Experimental data reported in PubChem BioAssay AID1963576 (National Center for Advancing Translational Sciences (NCATS), 2024).
In all, about 46,000 compounds went through this assay and about 60 (0.1%) were called active. Not shown: some 3% with an inconclusive outcome. The call rests on the fitted dose curve; in most records, active means well fitted inhibition curve with a large enough effect; inconclusive means small, poorly fitted or top-dose-only effect; inactive means no such curve, though single readings can be large or run the other way. The list shows a part of the results.

Assay: Primary qHTS assay for Inhibitors of ovarian cancer metastasis using an organotypic tumor microenvironment (TME) model. Further: nearly all actives have a fitted effect of over 65% in size.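 On activity change, negative = inhibition: plate controls were DMSO wells for no effect and tomatine positive control wells for full effect.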
Details: SKOV3ip1-GFP adhesion/invasion on 3D omental model, fluorescence; series mostly up to 45.8 µM; activity change, negative = inhibition: at the top concentration
In short: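 Primary human omental fibroblast/mesothelial 3D culture pre-formed 48 h. SKOV3ip1-GFP cells added with compounds (0.36-46 umol/L), incubated 2 h RT/16 h 37 C, fixed; GFP cells quantified at 488/509 nm.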

Activity change, negative = inhibition, inactive:
CCCCC(=O)NCc1nc2cccnc2n1Cc1ccc(OC)cc1 3.51%
COc1cccc(Nc2ccc3cc(S(=O)(=O)N4CCC(C)CC4)ccc3n2)c1 -0.794%
Cc1nn2c(=O)cc(COC(=O)c3cccc(NC(=O)CCc4ccccc4)c3)nc2s1 12.9%
Cc1ccccc1-c1nc2scc(CCNS(=O)(=O)c3ccccc3)n2n1 -2.3%
COc1ccc(-c2oc3ncn4nc(-c5ccccc5O)nc4c3c2-c2ccc(OC)cc2)cc1 -4.16%
CCOc1ccc(-n2c(/C=C/c3cccc(F)c3)nc3cc(OC)c(OC)cc3c2=O)cc1 40.9%
Cc1c(C(=O)NCc2ccccc2Cl)sc2nc3n(c(=O)c12)CCCCC3 1.24%
CCOc1ccc(NC(=O)CN2C(=O)CC(C)Sc3ccccc32)cc1 (centres undefined) 3.64%
CC[C@H]1OC(=O)[C@H](C)C(=O)[C@H](C)[C@@H](O[C@H]2O[C@H](C)C[C@H](N(C)C)[C@@H]2O)[C@](C)(OC)C[C@@H](C)C(=O)[C@H](C)[C@H]2N(CCCCn3cnc(-c4cccnc4)c3)C(=O)O[C@]12C 4.41%
O=C(NCc1ccccc1)C1CCCN(S(=O)(=O)c2cccc3nsnc23)C1 (centres undefined) 8.83%
O=C1CN(C(=O)COc2ccc(Cl)cc2)C(c2ccccc2)c2cc(Br)ccc2N1 (centres undefined) 19.2%
Cc1cccc(C(=O)Nc2cc(-c3nc4cccnc4s3)ccc2C)c1 -3.02%
COc1ccc(C)cc1NC(=O)C1CCN(S(=O)(=O)c2ccc3[nH]c(=O)oc3c2)CC1 15.6%
COc1ccc(CCn2c3c(c(=O)[nH]c2=O)C(NC(=O)c2ccccc2F)(C(F)(F)F)C(=O)N3)cc1OC (centres undefined) 1.68%
COc1cc2c(=O)n(Cc3ccccc3Cl)c(=O)n(CC(=O)Nc3ccc(C)c(C)c3)c2cc1OC 19.6%
CCn1cc(CCC(=O)NCc2ccc(C)cc2)c2ccccc21 -8.87%
COc1ccc(CCNC(=O)C(CC(C)C)N2Cc3ccccc3C2=O)c(OC)c1OC (centres undefined) -1.73%
Cc1ccc2c(c1)C(Cc1ccccc1F)C(=O)N2 (centres undefined) 9.33%
Cc1ccccc1NC(=O)CCOc1ccccc1 -1.81%
CC(C(=O)NCc1cccc(Br)c1)n1ncn2cccc2c1=O (centres undefined) -11.2%
Cc1ccc(NC(=O)c2c(C(=O)Nc3ccccc3)sc3nc(C)cc(=O)n23)cc1 -24.6%
COc1ccc(CNC(=O)C2CCN(S(=O)(=O)c3c(C)noc3/C=C/c3cccs3)CC2)cc1 -2.24%
COc1ccc(N2CCN(C(=O)c3cn(C)c4ccc(S(=O)(=O)N(C)C5CCCCC5)cc4c3=O)CC2)cc1 -9.91%
C=CCNc1c(O)cc2c(O)c1C[C@@H](C)C[C@H](OC)[C@@H](O)[C@@H](C)C=C(C)[C@H](OC(N)=O)[C@@H](OC)C=CC=C(C)C(=O)N2 20.4%
Cc1ccc(NC(=O)c2cc(CN3CCOCC3)on2)cc1Cl 0.799%
Cn1cc(-c2cc3n(n2)CCC(=O)N3CCCC(=O)Nc2ccccc2Cl)c2ccccc21 5.59%
COc1cc(-c2nc3ccc(Cl)cn3c2Nc2ccc3c(c2)OCO3)ccc1O -11.2%
O=C(c1cccs1)c1cn(CCOc2ccc(F)cc2)c2ccccc12 -11.7%
CCc1ccccc1NC(=O)c1cc2sc(Cl)cc2n1CC -1.08%
CCOC(=O)c1c(C)[nH]c(C)c1S(=O)(=O)NCC(=O)Nc1ccc(CC)cc1 3.28%
COc1ccc2c(c1)CCc1c(C(=O)Nc3c(C)nn(Cc4c(Cl)cccc4Cl)c3C)noc1-2 -9.81%
O=C(Nc1cccc(Nc2ncc(Br)c(NCCc3cnc[nH]3)n2)c1)N1CCCC1 14.5%
Cc1ccc(CNC(=O)CN(C)S(=O)(=O)c2ccc(Br)s2)cc1 0.323%
CC(C)c1ccccc1NC(=O)CSc1nnc(COc2ccccc2)o1 -2.97%
O=C(Nc1ccc(Cl)c(Cl)c1)c1cc(S(=O)(=O)N2CCN(c3cccc(Cl)c3)CC2)ccc1F -3.66%
Cc1oc2ncn(CC(C)C)c(=O)c2c1C(=O)Nc1cccc(C(F)(F)F)c1 3.6%
Cc1cc(Br)ccc1NC(=O)c1coc(=O)c2ccccc12 4.77%
COc1ccc(-c2cn(-c3ccc(C)cc3)c(S(=O)(=O)CC(=O)Nc3ccccc3)n2)cc1 4.62%
CCOc1ccccc1CNC(=O)CCCN1C(=O)COc2ccc(C)cc21 -7.66%
CCCOc1ccc(C(=O)NCC(c2ccc(OC)cc2)N2CCCCC2)cc1 (centres undefined) -2.61%
COc1ccc(-c2nnc(SCC(=O)Nc3ccccc3C)o2)cc1OC 4.14%
Cc1nn(CCC(=O)NCc2cccc(Br)c2)c(=O)c2nn(-c3ccccc3)c(C)c12 1.51%
CC(C)OCCCn1c(SCC(N)=O)nc2c(sc3ccccc32)c1=O -27.2%
O=C(NCCCCc1ccccc1)c1nn(-c2ccccc2F)nc1CO -0.891%

outcome, inactive:
CCC1CN(C(=O)N2CCC(C(=O)NCc3ccc(N(C)C)cc3)CC2)c2ccccc2O1 (centres undefined)
COc1ccc(-c2cc(-c3ccc(F)cc3)nc3c2COc2ccc(F)cc2-3)cc1
CCn1cc2nc(SCC(=O)Nc3ccc(OC)c(OC)c3)n(Cc3ccc(Cl)cc3)c(=O)c2n1
Cc1cn2c(=O)cc(COC(=O)c3cccc(NC(=O)c4ccc(C(C)(C)C)cc4)c3)nc2s1
CC(=O)c1cccc(NC(=O)C2CCN(C(=O)c3cnn(-c4ccccc4)c3-n3cccc3)CC2)c1
CC(C)(C)OC(=O)N1CCC(c2c(C(=O)Nc3ccc4c(c3)OCCO4)cnn2-c2ccc(Cl)cc2)CC1
CC(C)Oc1ccccc1C1C=C(C(=O)O)Nc2ncnn21 (centres undefined)
COc1cc2ccccc2cc1C(=O)Nc1cccc(-c2nc3ccccc3o2)c1
CC1=C(C(=O)Nc2ccc(C)cc2Cl)C2(CCCCC2)OC1=O
Nc1nn(-c2ccccc2)nc1C(=O)OCc1ccccc1Br
Cc1ccccc1S(=O)(=O)Cc1ccc(C(=O)NCc2ccccc2Cl)o1
O=C(O)Cc1sc(Nc2ccc(C(=O)O)cc2)nc1-c1ccccc1
CCOC(=O)c1noc2ncn(CC(=O)Nc3cc(Cl)ccc3OC)c(=O)c12
O=C(Cn1cnc2onc(-c3ccc(F)cc3)c2c1=O)N1CCN(c2ccccc2F)CC1
CC(C)NC(=O)Cn1ccc2cc(S(=O)(=O)N3CCCCCC3)ccc21
